These results are taken from patent publication US12473298B2, “Amide compounds, preparation method therefor, and use thereof in the medical field” (Shanghai Synergy Pharmaceutical Sciences Co., Ltd., priority 2019, dated 2025).

The target of one data set is Mutant type EZH2(Y641F) (Homo sapiens (Human), UniProt Q15910, Y641F). As to the kind of experiment: AlphaLISA, mutant type PRC2 complex EZH2(Y641F). In kind it is biochemical. As to conditions: read-out: Mutant type EZH2(Y641F) IC50 Nanomoles per Liter.
Sequence of Mutant type EZH2(Y641F) (Q15910 whole entry Y641F): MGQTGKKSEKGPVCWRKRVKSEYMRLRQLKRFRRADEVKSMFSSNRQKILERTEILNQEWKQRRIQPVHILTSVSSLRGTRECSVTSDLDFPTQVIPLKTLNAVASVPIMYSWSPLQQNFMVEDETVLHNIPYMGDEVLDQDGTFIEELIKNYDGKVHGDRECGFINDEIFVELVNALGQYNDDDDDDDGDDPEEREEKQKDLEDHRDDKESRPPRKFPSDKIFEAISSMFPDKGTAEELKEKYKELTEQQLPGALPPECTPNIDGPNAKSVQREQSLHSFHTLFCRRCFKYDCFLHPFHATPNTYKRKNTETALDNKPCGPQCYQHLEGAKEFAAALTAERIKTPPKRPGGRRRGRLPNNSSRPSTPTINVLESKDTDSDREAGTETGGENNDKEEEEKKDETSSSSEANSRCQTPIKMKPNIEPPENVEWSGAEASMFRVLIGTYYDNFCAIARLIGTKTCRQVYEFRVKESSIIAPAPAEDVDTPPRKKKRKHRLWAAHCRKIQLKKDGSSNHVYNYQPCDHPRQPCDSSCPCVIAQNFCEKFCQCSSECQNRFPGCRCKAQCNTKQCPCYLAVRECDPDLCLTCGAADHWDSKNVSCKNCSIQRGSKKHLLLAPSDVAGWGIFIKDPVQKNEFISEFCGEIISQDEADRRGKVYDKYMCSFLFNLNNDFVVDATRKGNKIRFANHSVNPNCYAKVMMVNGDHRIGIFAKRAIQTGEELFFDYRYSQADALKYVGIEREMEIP
Sequence of Mutant type EZH2(Y641F) (O75530 whole entry partner): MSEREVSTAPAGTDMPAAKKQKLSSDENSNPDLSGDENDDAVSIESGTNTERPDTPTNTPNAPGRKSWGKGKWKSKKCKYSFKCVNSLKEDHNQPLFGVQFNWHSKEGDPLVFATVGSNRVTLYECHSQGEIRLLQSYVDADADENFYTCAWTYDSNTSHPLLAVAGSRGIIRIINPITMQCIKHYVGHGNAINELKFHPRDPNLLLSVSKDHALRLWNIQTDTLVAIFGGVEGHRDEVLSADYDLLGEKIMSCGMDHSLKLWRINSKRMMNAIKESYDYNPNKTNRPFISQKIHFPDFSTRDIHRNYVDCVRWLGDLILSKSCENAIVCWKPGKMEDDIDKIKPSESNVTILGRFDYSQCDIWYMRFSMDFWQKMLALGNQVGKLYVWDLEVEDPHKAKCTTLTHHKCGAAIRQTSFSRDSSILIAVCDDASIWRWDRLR
Sequence of Mutant type EZH2(Y641F) (Q15022 whole entry partner): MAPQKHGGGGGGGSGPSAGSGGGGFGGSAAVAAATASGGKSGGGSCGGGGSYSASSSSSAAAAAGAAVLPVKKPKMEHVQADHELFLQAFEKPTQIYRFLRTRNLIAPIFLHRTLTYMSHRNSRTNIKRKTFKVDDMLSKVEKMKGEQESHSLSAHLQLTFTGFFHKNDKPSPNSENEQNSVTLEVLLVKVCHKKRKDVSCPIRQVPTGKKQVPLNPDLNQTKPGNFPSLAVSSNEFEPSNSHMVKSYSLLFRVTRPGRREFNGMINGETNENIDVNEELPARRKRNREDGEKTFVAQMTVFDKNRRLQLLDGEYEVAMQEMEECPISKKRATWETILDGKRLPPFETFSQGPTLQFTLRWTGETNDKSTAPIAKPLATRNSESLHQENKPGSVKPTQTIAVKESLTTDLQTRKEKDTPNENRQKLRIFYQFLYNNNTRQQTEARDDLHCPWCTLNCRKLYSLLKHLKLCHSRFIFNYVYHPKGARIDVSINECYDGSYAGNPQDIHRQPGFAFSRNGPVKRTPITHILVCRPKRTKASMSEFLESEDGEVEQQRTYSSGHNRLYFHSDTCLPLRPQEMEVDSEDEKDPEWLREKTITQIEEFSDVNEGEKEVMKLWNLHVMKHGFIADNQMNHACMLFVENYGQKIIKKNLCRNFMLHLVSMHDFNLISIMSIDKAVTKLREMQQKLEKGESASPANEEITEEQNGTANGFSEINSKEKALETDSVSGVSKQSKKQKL
Sequence of Mutant type EZH2(Y641F) (Q09028 whole entry partner): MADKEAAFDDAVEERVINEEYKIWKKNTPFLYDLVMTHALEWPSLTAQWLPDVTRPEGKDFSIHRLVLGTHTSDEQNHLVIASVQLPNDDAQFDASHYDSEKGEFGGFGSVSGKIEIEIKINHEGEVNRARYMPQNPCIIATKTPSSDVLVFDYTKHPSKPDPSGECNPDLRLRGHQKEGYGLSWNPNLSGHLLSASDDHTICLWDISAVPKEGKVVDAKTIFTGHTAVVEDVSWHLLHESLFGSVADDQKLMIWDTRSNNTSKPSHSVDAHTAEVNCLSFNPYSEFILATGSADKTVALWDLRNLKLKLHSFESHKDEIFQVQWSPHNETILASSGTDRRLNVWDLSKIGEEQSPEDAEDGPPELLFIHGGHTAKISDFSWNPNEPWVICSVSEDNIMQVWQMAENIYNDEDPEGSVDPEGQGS
Sequence of Mutant type EZH2(Y641F) (Q6ZN18 whole entry partner): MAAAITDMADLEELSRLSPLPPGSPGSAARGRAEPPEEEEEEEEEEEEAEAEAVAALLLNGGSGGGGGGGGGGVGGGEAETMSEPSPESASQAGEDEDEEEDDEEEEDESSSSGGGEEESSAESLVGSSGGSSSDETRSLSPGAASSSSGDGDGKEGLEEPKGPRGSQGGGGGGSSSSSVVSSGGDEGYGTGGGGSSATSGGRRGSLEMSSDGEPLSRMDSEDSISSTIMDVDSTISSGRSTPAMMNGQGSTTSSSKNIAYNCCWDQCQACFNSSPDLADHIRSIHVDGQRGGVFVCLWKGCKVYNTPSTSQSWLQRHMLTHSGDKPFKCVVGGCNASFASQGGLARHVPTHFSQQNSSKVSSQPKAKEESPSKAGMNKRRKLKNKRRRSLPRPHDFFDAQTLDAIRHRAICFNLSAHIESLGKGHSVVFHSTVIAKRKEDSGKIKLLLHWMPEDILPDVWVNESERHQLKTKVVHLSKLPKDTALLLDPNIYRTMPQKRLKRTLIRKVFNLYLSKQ
The next data set addresses Mutant type EZH2(A677G) (Homo sapiens (Human), UniProt Q15910, A677G). The data set can be described thus: AlphaLISA, mutant type PRC2 complex EZH2(A677G). Type of data set: biochemical. As to conditions: read-out: Mutant type EZH2(A677G) IC59 Nanomoles per Liter. In general terms: In Alpha technology, singlet oxygen from a donor bead excites a nearby acceptor bead.
The next data set deals with Mutant type EZH2(Y641N) (Homo sapiens (Human), UniProt Q15910, Y641N). As to the kind of experiment: AlphaLISA, mutant type PRC2 complex EZH2(Y641N). Type of data set: biochemical. As to conditions: read-out: Mutant type EZH2(Y641N) IC50 Nanomoles per Liter.
Sequence of Mutant type EZH2(Y641N) (Q15910 whole entry Y641N): as the sequence (Q15910 whole entry Y641F) above, with F641N counted along it
Sequence of Mutant type EZH2(Y641N) (O75530 whole entry partner): as the sequence (O75530 whole entry partner) above
Sequence of Mutant type EZH2(Y641N) (Q15022 whole entry partner): as the sequence (Q15022 whole entry partner) above
Sequence of Mutant type EZH2(Y641N) (Q09028 whole entry partner): as the sequence (Q09028 whole entry partner) above
Sequence of Mutant type EZH2(Y641N) (Q6ZN18 whole entry partner): as the sequence (Q6ZN18 whole entry partner) above
Data set [1] has as its system human diffuse large cell lymphoma B lymphocytes (Pfeiffer cell). As to the kind of experiment: Pfeiffer cell proliferation, Calcein AM staining. In kind it is cell-based.
For the next data set, the target named is wild-type EZH2 (Homo sapiens (Human), UniProt Q15910). The data set can be described thus: radiometric assay, activity to wild-type EZH2 of PRC2.
Sequence of wild-type EZH2 (Q15910 whole entry): as the sequence (Q15910 whole entry Y641F) above, with F641Y counted along it
Sequence of wild-type EZH2 (O75530 whole entry partner): as the sequence (O75530 whole entry partner) above
Sequence of wild-type EZH2 (Q15022 whole entry partner): as the sequence (Q15022 whole entry partner) above
Data set [2] has as its system human diffuse large B-cell lymphoma cells (Karpas 422 cell). As to the kind of experiment: Karpas 422 cell proliferation, Calcein AM staining. In kind it is cell-based.
Data set [3] in a line: Pharmacokinetic experiment in rats. Type of data set: in vivo, SD rats. As to conditions: for AUC / Cmax / bioavailability: male, SD, rat, plasma, rats; for AUC: read-out: Area Curve (AUC, ng/mL · h); for half-life: male, SD, rat, plasma; rats, Intravenous-Dose 4 mg/kg; read-out: Half life T1/2, h) (converted); for Cmax: read-out: Blood Drug level (Cmax, ng/mL); for bioavailability: oral 20 mg/kg vs intravenous 4 mg/kg, read-out: Bioavailability (P %). As for the experimental part:
A certain amount of compound was weighted and dissolved in 0.1% Tween under vortex and ultrasound, and 0.5% carboxymethyl cellulose sodium (CMC-NA) solution was added to form a uniform solution.

For data set [4], the system named is human diffuse large B-cell lymphoma cells (WSU-DLCL2 cell). As to the kind of experiment: Pharmacodynamic experiment in combination with other drugs, WSU-DLCL2 transplanted tumor model in mice. In kind it is in vivo, mice (CB17/SCID). To be noted: for inhibitory effect on tumor growth: 125 mg/kg intragastrically twice a day for 21 days; for inhibited tumor growth: intragastrically, twice a day for 21 days.

Data set [5] relates to human diffuse large cell lymphoma B lymphocytes (Pfeiffer cell). The data set can be described thus: Pharmacodynamic experiment, Pfeiffer transplanted tumor model in mice. Type of data set: in vivo, mice (beige SCID). To be noted: 50 mg/kg, intraperitoneally, once a day for 21 days.
In data set [6] the test system is human diffuse large B-cell lymphoma cells (WSU-DLCL2 cell). The data set can be described thus: Pharmacodynamic experiment, WSU-DLCL2 transplanted tumor model in mice. Type of data set: in vivo, mice (CB17/SCID). As to conditions: Mus musculus, WSUDLCL2, po, 504 h, read-out: inhibited tumor growth.
[7] abbreviates: Homo sapiens, Pfeiffer, data of 14th day, read-out: Pfeiffer Proliferation IC50 Nanomoles per Liter.
Setting [8] is: combined with four positive control drugs (CHOP).
Where [9] appears, read: read-out: Wild-type EZH2 IC50 Nanomoles per Liter.

Read-outs that look alike come from different tables or passages of the source.

Sequence of Mutant type EZH2(A677G) (Q15910 whole entry A677G): as the sequence (Q15910 whole entry Y641F) above, with F641Y, A677G counted along it
Sequence of Mutant type EZH2(A677G) (O75530 whole entry partner): as the sequence (O75530 whole entry partner) above
Sequence of Mutant type EZH2(A677G) (Q15022 whole entry partner): as the sequence (Q15022 whole entry partner) above
Sequence of Mutant type EZH2(A677G) (Q09028 whole entry partner): as the sequence (Q09028 whole entry partner) above
Sequence of Mutant type EZH2(A677G) (Q6ZN18 whole entry partner): as the sequence (Q6ZN18 whole entry partner) above

In the case of `CCN(c1cc(-c2ccc3c(c2)NC(=O)C32CCOCC2)cc(C(=O)NCc2c(OC)cc(C)[nH]c2=O)c1C)C1CCN(C)CC1` [Example 1, 3-(ethyl(1-methylpiperidin-4-yl)amino)-N-((4-methoxy-6-methyl-2-oxo-1,2-dihydropyridin-3-yl)methyl)-2-methyl-5-(2-oxo-2′,3′,5′,6′-tetrahydrospiro[dihydroindole-3,4′-pyran]-6-yl)benzamide], the IC50 was 0.9 nM on Mutant type EZH2(Y641F); 0.54 nM at Mutant type EZH2(A677G); 0.43 nM at Mutant type EZH2(Y641N); 2.95 nM in data set [1] (setting [7]); 1 nM against wild-type EZH2.

Broadly, the bioavailability is the share of a dose that reaches the circulation, judged against a reference dose that is usually intravenous. Take `CCCN1CC2(CCOCC2)c2ccc(-c3cc(N(CC)C4CCOCC4)c(C)c(C(=O)NCc4c(C)cc(C)[nH]c4=O)c3Cl)cc21` [Example 57]: the IC50 in data set [1] (setting [7]) is 1.47 nM. In addition, in data set [2] (KARPAS-422, data of 14th day, read-out: Karpas422 Proliferation IC50 Nanomoles per Liter), the IC50 is 2.43 nM. In data set [3] (Intravenous-Dose 4 mg/kg), the AUC is 979 ng·h/mL. For the same molecule, in [3], the half-life was 1.15 h and the bioavailability worked out at 26.3%. Further, in data set [3] (Oral-Dose 20 mg/kg), the AUC was found to be 1290 ng·h/mL and the Cmax came out at 456 ng/mL. Moreover, the “inhibitory effect on tumor growth” value in [4] (setting [8]) is listed as “exceeded 99%”. For the same molecule, the inhibited tumor growth in data set [4] (125 mg/kg) turned out to be 81%.

As to `CCN(c1cc(-c2ccc3c(c2)C=CC32CCN(CC(F)(F)F)CC2)cc(C(=O)NCc2c(OC)cc(C)[nH]c2=O)c1C)C1CCOCC1` [Example 35, 3-(ethyl(tetrahydro-2H-pyran-4-yl)amino)-N-((4-methoxy-6-methyl-2-oxo-1,2-dihydropyridin-3-yl)methyl)-2-methyl-5-(1′-(2,2,2-trifluoroethyl)spiro[indene-1,4′-piperidine]-5-yl)benzamide], the IC50 was 0.78 nM on Mutant type EZH2(Y641F); 0.24 nM on Mutant type EZH2(A677G); 0.1 nM on Mutant type EZH2(Y641N); 2.21 nM in [1] (setting [7]); 0.9 nM at wild-type EZH2 (setting [9]).

For `CCN(c1cc(-c2ccc3c(c2)N(C(C)C)C(=O)C32CCOCC2)c(Cl)c(C(=O)NCc2c(OC)cc(C)[nH]c2=O)c1C)C1CCOCC1` [Example 52, 2-chloro-5-(ethyl(tetrahydro-2H-pyran-4-yl)amino)-3-(1-isopropyl-2-oxo-2′,3′,5′,6′-tetrahydrospiro[dihydroindole-3-1,4′-pyran]-6-yl)-N-((4-methoxy-6-methyl-2-oxo-1,2-dihydropyridin-3-yl)methyl)-6-methylbenzamide], the IC50 on Mutant type EZH2(Y641F) was 0.64 nM; on Mutant type EZH2(A677G) it was 0.44 nM; at Mutant type EZH2(Y641N) it was 0.23 nM; in [1] (setting [7]) it was 1.38 nM; on wild-type EZH2 (setting [9]), 0.97 nM.

As to `CCN(c1cc(-c2ccc3c(c2)NC(=O)C32CCN(CC3CC3)CC2)cc(C(=O)NCc2c(C)cc(C)[nH]c2=O)c1C)C1CCOCC1` [Example 69, 5-(1′-(cyclopropylmethyl)-2-oxospiro[dihydroindole-3,4′-piperidine]-6-yl)-N-((4,6-dimethyl-2-oxo-1,2-dihydropyridin-3-yl)methyl)-3-(ethyl(tetrahydro-2H-pyran-4-yl)amino)-2-methylbenzamide], the IC50 was 0.38 nM at Mutant type EZH2(Y641F); 0.21 nM at Mutant type EZH2(A677G); 0.13 nM on Mutant type EZH2(Y641N); 1.35 nM in [1] (setting [7]); 0.58 nM on wild-type EZH2 (setting [9]).

Take `CC[C@H](C)n1cc(C)c2c(C(=O)NCc3c(C)cc(C)[nH]c3=O)cc(-c3ccc(N4CCNCC4)nc3)cc21` [GSK126, reference compound]: the IC50 in [1] (data of 14th day, read-out: Pfeiffer Proliferation IC50 Nanomoles per Liter) was 38.8 nM. The inhibited tumor growth in data set [5] worked out at 68%.

Take `CCCN1C(=O)C2(CCOCC2)c2ccc(-c3cc(N(CC)C4CCOCC4)c(C)c(C(=O)NCc4c(C)cc(C)[nH]c4=O)c3F)cc21` [Example 58]: the IC50 in data set [1] (Homo sapiens, Pfeiffer, read-out: Pfeiffer Proliferation IC50 Nanomoles per Liter (nM)) was 0.58 nM. Further, the IC50 in data set [2] (KARPAS-422, read-out: Karpas422 Proliferation IC50 Nanomoles per Liter (nM)) is 0.74 nM. In [3] (Intravenous-Dose 4 mg/kg), the AUC is 893 ng·h/mL. In addition, in [3], the half-life was 1.42 h and the bioavailability worked out at 34.5%. In addition, in data set [3] (Oral-Dose 20 mg/kg), the AUC came to 1540 ng·h/mL and the Cmax is 500 ng/mL. Besides, in [6], the inhibition in vivo at 150 mg/kg was determined as 89%.

For the molecule `CCN(c1cc(-c2ccc3c(c2)N(C(C)=O)CC32CCOCC2)cc(C(=O)NCc2c(C)cc(C)[nH]c2=O)c1C)C1CCOCC1` [Example 74, 5-(1-acetyl-2′,3′,5′,6′-tetrahydrospiro[dihydroindole-3,4′-pyran]-6-yl)-N-((4,6-dimethyl-2-oxo-1,2-dihydropyridin-3-yl)methyl)-3-(ethyl(tetrahydro-2H-pyran-4-yl)amino)-2-methylbenzamide], the IC50 at Mutant type EZH2(Y641F) was 0.63 nM; on Mutant type EZH2(A677G) it was 0.26 nM; at Mutant type EZH2(Y641N), 0.14 nM; in [1] (setting [7]), 2.78 nM; at wild-type EZH2 (setting [9]) it was 0.83 nM.

As to `CCN(c1cc(-c2ccc3c(c2)N(C)C(=O)C32CCOCC2)c(Cl)c(C(=O)NCc2c(C)cc(C)[nH]c2=O)c1C)C1CCOCC1` [Example 10, 2-chloro-N-((4,6-dimethyl-2-oxo-1,2-dihydropyridin-3-yl)methyl)-5-(ethyl(tetrahydro-2H-pyran-4-yl)amino)-6-methyl-3-(1-methyl-2-oxo-2′,3′,5′,6′-tetrahydrospiro[dihydroindole-3,4′-pyran]-6-yl)benzamide], the AUC in [3] (Intravenous-Dose 4 mg/kg) was 898 ng·h/mL. Also, in [3], the half-life was 1.31 h and the bioavailability stood at 34.8%. Further, in data set [3] (Oral-Dose 20 mg/kg), the AUC stood at 1560 ng·h/mL and the Cmax was 515 ng/mL. Besides, in data set [4] (setting [8]), the “inhibitory effect on tumor growth” value is recorded as “exceeded 98%”. For the same molecule, the tumor disappearance entry in data set [4] (125 mg/kg, combined with four positive control drugs (CHOP)) was “tumors in several mouse disappeared”. Moreover, in data set [4] (125 mg/kg), the inhibited tumor growth came to 83%.
